{
  "source": "PubChem BioAssay AID1476",
  "about": "(National Center for Advancing Translational Sciences (NCATS), 2009)",
  "note": "The campaign covered roughly 200,000 compounds. About 4,500 (2.2%) were called active. The inconclusive results got no clear call from the source; some entries with a clear call stand among them for comparison. The call rests on the fitted dose curve; in most records, active means well fitted inhibition curve with a large enough effect; inconclusive means small, poorly fitted or top-dose-only effect, or effect the other way; inactive means flat fitted curve, though single readings scatter. Where the call is inconclusive, the potency comes from a doubtful curve fit. Potency means the concentration at half of the fitted maximal effect; tags describe the fitted curve by direction and shape.",
  "data": [
    {"target": "Cruzipain (Trypanosoma cruzi) (UniProt P25779)", "sequence (P25779 whole entry, looked up)": "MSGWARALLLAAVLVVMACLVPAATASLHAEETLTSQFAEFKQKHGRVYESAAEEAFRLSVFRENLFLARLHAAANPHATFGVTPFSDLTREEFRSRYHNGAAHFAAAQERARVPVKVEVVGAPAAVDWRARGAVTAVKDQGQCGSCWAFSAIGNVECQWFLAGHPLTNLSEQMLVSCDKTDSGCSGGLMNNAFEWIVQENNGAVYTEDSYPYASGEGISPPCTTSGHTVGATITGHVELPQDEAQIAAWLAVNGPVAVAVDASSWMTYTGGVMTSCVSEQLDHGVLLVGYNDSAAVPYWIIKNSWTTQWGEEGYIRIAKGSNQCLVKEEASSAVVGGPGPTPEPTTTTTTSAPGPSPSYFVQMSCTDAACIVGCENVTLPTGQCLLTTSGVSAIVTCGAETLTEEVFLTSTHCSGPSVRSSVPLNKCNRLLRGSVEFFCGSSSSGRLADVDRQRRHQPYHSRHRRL", "assay": "qHTS Assay for Promiscuous and Specific Inhibitors of Cruzain (without detergent); further: nearly all actives have a fitted effect of over 40% in size;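 on max response, negative = inhibition: plate controls were enzyme without inhibitor for no effect and buffer without enzyme for full effect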", "conditions": "purified cruzain, Z-FR-AMC fluorescence, no detergent", "summary_of_the_method": "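Detergent-free condition (0.00005% Triton X-100) in acetate buffer pH 5.5 with DTT. 1.5 nM enzyme and compound were pre-mixed 15 min, then 2 uM Z-FR-AMC substrate added; reaction progress from fluorescence change between first and third reads (60 s).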", "values": [
      {"compound": "CCOc1ccccc1N1CCN(C(=O)c2ccccc2)CC1", "Potency": "inconclusive: 1.26 µM [inhibitor, single point]"},
      {"compound": "CCc1nnc(NS(=O)(=O)c2ccc(N=Cc3c(C)[nH]n(-c4ccc(C)c(C)c4)c3=O)cc2)s1", "Potency": "inconclusive: 25.1 µM [activator, single point]"},
      {"compound": "CC(C)c1ccc(NC(=O)Cn2nnc(C(=O)NCc3ccc(Cl)cc3)c2N)cc1", "Potency": "active: 7.94 µM"},
      {"compound": "COc1ccc(N2CC(NC(=O)C3CCCC3)CC2=O)cc1OC", "note": "(configuration not stated)", "max response, negative = inhibition": "inactive: -8.44%"},
      {"compound": "CSc1ccc(CCNC(=O)c2cc3cc(S(=O)(=O)N4CCCCC4)ccc3n2C)cc1", "Potency": "inconclusive: 39.8 µM [inhibitor, single point]"},
      {"compound": "CCCN1Cc2cccc(C(=O)N3CCN(c4cc(Cl)ccc4C)CC3)c2C1=O", "Potency": "inconclusive: 31.6 µM [activator, single point]"},
      {"compound": "Fc1ccc2nc(Nc3nc4cc5c(cc4s3)OCCO5)sc2c1", "Potency": "inconclusive: 39.8 µM [inhibitor, single point]"},
      {"compound": "CCOc1cc(C2NC(=O)NC(O)(C(F)(F)F)C2C(=O)c2ccc(Cl)cc2)ccc1O", "note": "(configuration not stated)", "Potency": "inconclusive: 0.794 µM [inhibitor, full curve, poor fit]"},
      {"compound": "O=C(c1ccccc1Cl)N(C(=O)c1ccccc1Cl)c1nccc(-c2cccs2)n1", "Potency": "inconclusive: 39.8 µM [inhibitor, single point]"},
      {"compound": "O=C(Nc1cccc(Cl)c1)C1CCCN(c2ncnc3c2nc2n3CCCCC2)C1", "note": "(configuration not stated)", "Potency": "inconclusive: 39.8 µM [activator, single point]"},
      {"compound": "O=C(O)CC1S/C(=N/N=C/c2ccc(-c3ccc(Cl)cc3[N+](=O)[O-])o2)NC1=O", "note": "(configuration not stated)", "Potency": "inconclusive: 39.8 µM [activator, single point]"},
      {"compound": "CCOC(=O)C1CCCN(C(=O)CN2C(=O)COc3ccc(C(C)(C)C)cc32)C1", "note": "(configuration not stated)", "Potency": "inconclusive: 31.6 µM [activator, single point]"},
      {"compound": "Cc1ccc(-n2cc(C(=O)c3cc(Cl)ccc3O)cc(C#N)c2=O)cc1", "Potency": "inconclusive: 39.8 µM [inhibitor, single point]"},
      {"compound": "Cc1nn(C)cc1/C=N/NC(=O)C(C)(C)Oc1ccc(Cl)cc1", "Potency": "inconclusive: 6.31 µM [inhibitor, single point]"},
      {"compound": "O=C(CSc1nnc(-c2ccccc2)c(-c2ccccc2)n1)Nc1ccc(Br)cn1", "Potency": "inconclusive: 39.8 µM [inhibitor, single point]"},
      {"compound": "CCNC(=S)NNC(=O)c1cc(-c2ccc(OC)cc2)nc2ccccc12", "max response, negative = inhibition": "inactive: 23.2%"},
      {"compound": "COC(=O)c1ccc(NC(=O)c2ccccc2NS(=O)(=O)c2ccccc2)cc1", "Potency": "inconclusive: 39.8 µM [inhibitor, single point]"}
    ]}
  ]
}
